# Measurements from the supplement of paper PMC8728848.
# Some of the results follow.
# B1: PX9961T-pdi-555-33-555 (Parabacteroides distasonis) (protein)
# chain: FDEETAFQSPTLVYVNTVASLYNNMFKIMGNDRHVYDLNTFSSDEAMLPCRIGDWEDGGLWQNIFLHRWGTMNDLTKNSWDFLYEQIGKCNQSVDKLQAFAEEQPDVEYFKVYLEEVRAVRAFFYYELLDLFARVPLVTSSTTPMSEVKQSERSVVFNFVRSELEEALPYLSDNRSNQKGEYYGRITKPVAYMILAKLALNAEVYADDNWTDGNRPAGKNIKFTVDGKEMNAWEATIAYVDKLEALGYKLQGNFSENFAVANETSVENIFTVPMDPVAYPDAKDYNLVRTRHYDHATAYGQSGWNGSCATVKAMNVFKFGTADEDPRCKLTYFTGEVTGPDGKTIYTEWDGQKVPLKYEPNAPKVYMDASDGLLVKTAGARMAKYEFDQNAQDGGNLHGNDCVIFRFADALLMKAEAKIRLGQNGDDEVNQVRNRVGAKPLQNVTLDTLLDERMLELAWEGVRRQDLIRFGKFTEATVDRYVGVKHFASSLDYQEDKTGYTTVFSIYADILSLNPNLTQNPGY
# Key:
# Assay in all cases: glycan array binding signal (z-score within array); higher = stronger binding
# Details in all cases: glycan notation: IUPAC condensed, linker removed
# Fuc(a1-2)Gal = molecular target: Fuc(a1-2)Gal
# How it was run: (§1)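 Columns mapping to the same glycan were averaged after glycan names were converted to IUPAC-condensed notation. The data come from 3228 arrays in the Consortium for Functional Glycomics database, limited to those with an available protein sequence. Binding is reported as a within-array Z-score averaged across arrays of one protein sequence and across linkers.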
# Fuc(a1-2)Gal(b1-3)GalNAc = molecular target: Fuc(a1-2)Gal(b1-3)GalNAc
# How it was run: as §1
# [1] = molecular target: Fuc(a1-2)Gal(b1-3)GalNAc(a1-3)[Fuc(a1-2)]Gal(b1-4)Glc
# How it was run: as §1
# [2] = molecular target: Fuc(a1-2)Gal(b1-3)GalNAc(a1-3)[Fuc(a1-2)]Gal(b1-4)GlcNAc
# How it was run: as §1
# [3] = molecular target: Fuc(a1-2)Gal(b1-3)GalNAc(b1-3)Gal
# How it was run: as §1
# [4] = molecular target: Fuc(a1-2)Gal(b1-3)GalNAc(b1-3)Gal(a1-4)Gal(b1-4)Glc
# How it was run: as §1
# [5] = molecular target: Fuc(a1-2)Gal(b1-3)GalNAc(b1-4)[Neu5Ac(a2-3)]Gal(b1-4)Glc
# How it was run: as §1
# Fuc(a1-2)Gal(b1-3)GlcNAc = molecular target: Fuc(a1-2)Gal(b1-3)GlcNAc
# How it was run: as §1
# [6] = molecular target: Fuc(a1-2)Gal(b1-3)GlcNAc(b1-2)Man(a1-3)[Fuc(a1-2)Gal(b1-3)GlcNAc(b1-2)Man(a1-6)]Man(b1-4)GlcNAc(b1-4)GlcNAc
# How it was run: as §1
# [7] = molecular target: Fuc(a1-2)Gal(b1-3)GlcNAc(b1-2)Man(a1-3)[Fuc(a1-2)Gal(b1-3)GlcNAc(b1-2)Man(a1-6)]Man(b1-4)GlcNAc(b1-4)[Fuc(a1-6)]GlcNAc
# How it was run: as §1
# [8] = molecular target: Fuc(a1-2)Gal(b1-3)GlcNAc(b1-3)Gal(b1-4)Glc
# How it was run: as §1
# [9] = molecular target: Fuc(a1-2)Gal(b1-3)GlcNAc(b1-3)GalNAc
# How it was run: as §1
# [10] = molecular target: Fuc(a1-2)Gal(b1-3)GlcNAc(b1-3)[Fuc(a1-2)Gal(b1-3)GlcNAc(b1-6)]GalNAc
# How it was run: as §1
# [11] = molecular target: Fuc(a1-2)Gal(b1-3)GlcNAc(b1-3)[Gal(b1-4)GlcNAc(b1-6)]Gal(b1-4)Glc
# How it was run: as §1
# [12] = molecular target: Fuc(a1-2)Gal(b1-3)GlcNAc(b1-3)[Neu5Ac(a2-6)Gal(b1-4)GlcNAc(b1-6)]Gal(b1-4)Glc
# How it was run: as §1
# [13] = molecular target: Fuc(a1-2)Gal(b1-3)GlcNAc6S
# How it was run: as §1
# [14] = molecular target: Fuc(a1-2)Gal(b1-3)[Fuc(a1-4)]GlcNAc
# How it was run: as §1
# [15] = molecular target: Fuc(a1-2)Gal(b1-3)[Fuc(a1-4)]GlcNAc(b1-2)Man(a1-3)[Fuc(a1-2)Gal(b1-3)[Fuc(a1-4)]GlcNAc(b1-2)Man(a1-3)]Man(b1-4)GlcNAc(b1-4)GlcNAc
# How it was run: as §1
# [16] = molecular target: Fuc(a1-2)Gal(b1-3)[Fuc(a1-4)]GlcNAc(b1-2)Man(a1-3)[Fuc(a1-2)Gal(b1-3)[Fuc(a1-4)]GlcNAc(b1-2)Man(a1-6)]Man(b1-4)GlcNAc(b1-4)[Fuc(a1-6)]GlcNAc(b1-4)[Fuc(a1-6)]GlcNAc
# How it was run: as §1
# [17] = molecular target: Fuc(a1-2)Gal(b1-3)[Fuc(a1-4)]GlcNAc(b1-3)[Fuc(a1-3)[Gal(b1-4)]GlcNAc(b1-6)]Gal(b1-4)Glc
# How it was run: as §1
# [18] = molecular target: Fuc(a1-2)Gal(b1-3)[Fuc(a1-4)]GlcNAc(b1-3)[Gal(b1-4)GlcNAc(b1-6)]Gal(b1-4)Glc
# How it was run: as §1
# Fuc(a1-2)Gal(b1-4)Glc = molecular target: Fuc(a1-2)Gal(b1-4)Glc
# How it was run: as §1
# Fuc(a1-2)Gal(b1-4)Glc6S = molecular target: Fuc(a1-2)Gal(b1-4)Glc6S
# How it was run: as §1
# Fuc(a1-2)Gal(b1-4)GlcNAc = molecular target: Fuc(a1-2)Gal(b1-4)GlcNAc
# How it was run: as §1
# [19] = molecular target: Fuc(a1-2)Gal(b1-4)GlcNAc(b1-2)Man
# How it was run: as §1
# [20] = molecular target: Fuc(a1-2)Gal(b1-4)GlcNAc(b1-2)Man(a1-3)[Fuc(a1-2)Gal(b1-4)GlcNAc(b1-2)Man(a1-6)]Man(b1-4)GlcNAc(b1-4)GlcNAc
# How it was run: as §1
# [21] = molecular target: Fuc(a1-2)Gal(b1-4)GlcNAc(b1-2)Man(a1-3)[Fuc(a1-2)Gal(b1-4)GlcNAc(b1-2)Man(a1-6)]Man(b1-4)GlcNAc(b1-4)[Fuc(a1-6)]GlcNAc
# How it was run: as §1
# [22] = molecular target: Fuc(a1-2)Gal(b1-4)GlcNAc(b1-2)[Fuc(a1-2)Gal(b1-4)GlcNAc(b1-4)]Man(a1-3)[Fuc(a1-2)Gal(b1-4)GlcNAc(b1-2)Man(a1-6)]Man(b1-4)GlcNAc(b1-4)GlcNAc
# How it was run: as §1
# [23] = molecular target: Fuc(a1-2)Gal(b1-4)GlcNAc(b1-3)Gal(b1-4)GlcNAc
# How it was run: as §1
# [24] = molecular target: Fuc(a1-2)Gal(b1-4)GlcNAc(b1-3)Gal(b1-4)GlcNAc(b1-2)Man(a1-3)[Fuc(a1-2)Gal(b1-4)GlcNAc(b1-3)Gal(b1-4)GlcNAc(b1-2)Man(a1-6)]Man(b1-4)GlcNAc(b1-4)GlcNAc
# How it was run: as §1
binder,measurement,setting,value
B1,glycan array binding signal (z-score),Fuc(a1-2)Gal,-0.668
same,glycan array binding signal (z-score),Fuc(a1-2)Gal(b1-3)GalNAc,0.291
same,glycan array binding signal (z-score),[1],-0.139
same,glycan array binding signal (z-score),[2],0.191
same,glycan array binding signal (z-score),[3],-0.475
same,glycan array binding signal (z-score),[4],-0.258
same,glycan array binding signal (z-score),[5],0.436
same,glycan array binding signal (z-score),Fuc(a1-2)Gal(b1-3)GlcNAc,0.033
same,glycan array binding signal (z-score),[6],-0.549
same,glycan array binding signal (z-score),[7],0.178
same,glycan array binding signal (z-score),[8],-0.312
same,glycan array binding signal (z-score),[9],0.217
same,glycan array binding signal (z-score),[10],-0.068
same,glycan array binding signal (z-score),[11],-0.271
same,glycan array binding signal (z-score),[12],-0.731
same,glycan array binding signal (z-score),[13],0.963
same,glycan array binding signal (z-score),[14],-0.23
same,glycan array binding signal (z-score),[15],0.476
same,glycan array binding signal (z-score),[16],0.165
same,glycan array binding signal (z-score),[17],0.077
same,glycan array binding signal (z-score),[18],0.563
same,glycan array binding signal (z-score),Fuc(a1-2)Gal(b1-4)Glc,0.293
same,glycan array binding signal (z-score),Fuc(a1-2)Gal(b1-4)Glc6S,-0.659
same,glycan array binding signal (z-score),Fuc(a1-2)Gal(b1-4)GlcNAc,0.043
same,glycan array binding signal (z-score),[19],-0.007
same,glycan array binding signal (z-score),[20],1.91
same,glycan array binding signal (z-score),[21],0.812
same,glycan array binding signal (z-score),[22],0.759
same,glycan array binding signal (z-score),[23],-0.156
same,glycan array binding signal (z-score),[24],0.962
